Assay results published in article PMC7563118.
Numbering of substitutions follows the chain as printed. These are yes or no findings as the source states them, for the method shown. In cells and extracts the contact can be indirect. Some binding calls cover weakened binding; strength is not graded here. For part of these data: Where a sequence is shown, tags or fusion partners need not be part of it.

Sequences of proteins named here, by UniProt entry; tags and fusion partners are left off.
UniProt O95863: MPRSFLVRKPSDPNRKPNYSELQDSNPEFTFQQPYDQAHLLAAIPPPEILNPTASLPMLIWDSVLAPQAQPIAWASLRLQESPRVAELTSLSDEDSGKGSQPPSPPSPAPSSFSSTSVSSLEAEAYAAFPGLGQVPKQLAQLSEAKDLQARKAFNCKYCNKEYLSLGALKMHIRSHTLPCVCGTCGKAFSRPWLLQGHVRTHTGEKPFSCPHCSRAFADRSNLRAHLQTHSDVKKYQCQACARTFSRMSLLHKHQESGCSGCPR
UniProt P49841: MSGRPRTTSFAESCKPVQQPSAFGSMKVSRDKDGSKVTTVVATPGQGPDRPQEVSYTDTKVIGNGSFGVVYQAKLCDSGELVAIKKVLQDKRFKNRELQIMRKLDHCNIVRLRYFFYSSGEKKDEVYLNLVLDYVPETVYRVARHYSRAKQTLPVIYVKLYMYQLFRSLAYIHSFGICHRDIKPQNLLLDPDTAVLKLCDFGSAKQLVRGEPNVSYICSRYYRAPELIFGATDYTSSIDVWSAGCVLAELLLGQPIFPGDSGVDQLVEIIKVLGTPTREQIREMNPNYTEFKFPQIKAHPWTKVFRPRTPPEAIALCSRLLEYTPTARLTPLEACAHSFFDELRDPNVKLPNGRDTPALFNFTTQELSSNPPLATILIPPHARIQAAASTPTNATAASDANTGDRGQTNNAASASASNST

Legend:
[1] = molecular target: T1, GST-SH3 (C-terminal domain of LASP1) (human) (UniProt Q14847); assay: pull-down; 1.5 nmol GST fusion on glutathione beads incubated overnight at 4 °C with 200 µg nuclear lysate of 293-CXCR4 cells transiently expressing Flag-Snail1-WT and stimulated with 20 nM CXCL12; 50 mM Tris-HCl pH 7.5, 0.05% Triton X-100, 100 mM NaCl; immunoblot; only the target purified
T1 sequence: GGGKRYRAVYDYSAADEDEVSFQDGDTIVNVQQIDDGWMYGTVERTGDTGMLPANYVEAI

[2] = molecular target: T2, GST-LASP1 (full length, wild type) (human) (UniProt Q14847); assay: as above
T2 sequence: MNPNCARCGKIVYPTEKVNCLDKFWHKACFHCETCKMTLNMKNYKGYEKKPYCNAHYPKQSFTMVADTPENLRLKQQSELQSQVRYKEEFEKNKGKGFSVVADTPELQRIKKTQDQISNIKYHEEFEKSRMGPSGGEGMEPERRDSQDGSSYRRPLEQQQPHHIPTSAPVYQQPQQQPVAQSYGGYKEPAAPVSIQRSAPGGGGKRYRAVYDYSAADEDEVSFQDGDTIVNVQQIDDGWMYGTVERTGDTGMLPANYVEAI

[3] = molecular target: T3, LASP1 (LIM and SH3 protein 1), endogenous nuclear (human (endogenous in MDA-Bone-Un)) (UniProt Q14847); assay: condition: only cells pre-incubated with the CXCR4 antagonist AMD3465 before CXCL12; co-IP; as a3, but cells pre-incubated with the CXCR4 antagonist AMD-3465 for 30 min before CXCL12
T3 sequence: T2 sequence

[4] = molecular target: T4, GST-LASP1 S146D (full length, phosphomimetic) (human) (UniProt Q14847); assay: pull-down; 1.5 nmol GST fusion on glutathione beads incubated overnight at 4 °C with 250 µg nuclear lysate of serum-starved, CXCL12-stimulated (20 nM) MDA-Bone-Un cells; 50 mM Tris-HCl pH 7.5, 0.05% Triton X-100, 100 mM NaCl; immunoblot of endogenous proteins; only the target purified
T4 sequence: T2 sequence with S146D

[5] = molecular target: T3, LASP1 (LIM and SH3 protein 1), endogenous nuclear (human (endogenous in MDA-Bone-Un)); assay: co-IP; endogenous LASP1 immunoprecipitated with mouse anti-LASP1 (8C6) from 250 µg nuclear extract of serum-starved MDA-Bone-Un cells stimulated with 20 nM CXCL12 for 20 min; immunoblot
[6] = molecular target: T2, GST-LASP1 (full length, wild type) (human); assay: pull-down; 1.5 nmol GST fusion on glutathione beads incubated overnight at 4 °C with 250 µg nuclear lysate of serum-starved, CXCL12-stimulated (20 nM) MDA-Bone-Un cells; 50 mM Tris-HCl pH 7.5, 0.05% Triton X-100, 100 mM NaCl; immunoblot of endogenous proteins; only the target purified
[7] = molecular target: T5, GST-LASP1 Y171D (full length, phosphomimetic) (human) (UniProt Q14847); assay: as above
T5 sequence: T2 sequence with Y171D

[8] = molecular target: T6, GST-LASP1 S146A (full length, phosphonull) (human) (UniProt Q14847); assay: as above
T6 sequence: T2 sequence with S146A

[9] = molecular target: T7, GST-LASP1 Y171F (full length, phosphonull) (human) (UniProt Q14847); assay: as above
T7 sequence: T2 sequence with Y171F

Substance | binding [1] | binding [2] | binding [3] | binding [4] | binding [5] | binding [6] | binding [7] | binding [8] | binding [9]
Flag-Snail1-WT (from UniProt O95863 1-264) | binds | binds |  |  |  |  |  |  | 
GSK-3β (Glycogen synthase kinase-3β), endogenous (from UniProt P49841 1-420) |  |  | no binding | no binding | binds |  |  |  | 
Snail1 (Snail family transcriptional repressor), endogenous (from UniProt O95863 1-264) |  |  | no binding | binds | binds | binds | binds | binds | binds
